Experimental data: PubChem BioAssay AID686971 (National Center for Advancing Translational Sciences (NCATS), 2013)
The campaign covered roughly 360,000 compounds. About 7,500 (2.1%) were called active. Inconclusive means that the source gave no clear call. Such entries were picked first, then a sample of the others. Calls follow the shape of the dose curve; as a rule, active = well fitted cell-killing curve with a large enough effect; inconclusive = small, poorly fitted or top-dose-only effect, or effect the other way, or another doubt; inactive = no such curve, though single readings can be large or run the other way. Potencies of inconclusive entries are left out as doubtful fits.

Assay: qHTS for induction of synthetic lethality in tumor cells producing 2HG: qHTS for the HT-1080-IDH1KD cell line
Settings: HT-1080 IDH1 knockdown viability, ATP luminescence, 48 h; series mostly up to 46.1 µM
Procedure, shortened: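 In this qHTS, HT-1080 cells depleted of IDH1 are exposed for 48 h at 37 °C to compound titrations. Toxicity is scored from CellTiter-Glo luminescence, with DMSO as full viability and medium alone as none.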
Potency is read from the fitted curve at half-maximal effect; tags tell the direction and shape of the fitted curve.

Structure (SMILES)	Potency
O=C(Nc1cccc(S(=O)(=O)NC2=NCCC2)c1)c1cn(-c2ccccc2)nc1-c1ccc(F)cc1	inconclusive [cytotoxic, single point]
Cc1nn(C(C)C)c(C)c1CN1CCC(C(=O)Nc2cccc(-c3cccc(F)c3)c2)CC1	active: 20.6 µM
COCCNC(=O)NC1(C(F)(F)F)Oc2ccc(Cl)cc2O1 (centres undefined)	inconclusive [cytotoxic, single point]
COCc1nnc(NC(=O)c2ccc(S(=O)(=O)N3CCCCCC3)cc2)o1	inconclusive [cytotoxic, single point]
Cc1ccc(-c2csc(N)n2)cc1	inactive
O=C(Nc1cnccn1)c1csc2ccccc12	inconclusive [rising, full curve, poor fit]
O=C(N/N=C/c1ccc(Cl)cc1)c1cc(-c2cccnc2)nc2ccccc12	inconclusive [cytotoxic, full curve]
Cc1ccc(C)c(NC(=O)c2ccccc2O)c1	inconclusive [cytotoxic, single point]
Cc1ccc(S(=O)(=O)NCc2ccccc2)cc1C(=O)NCC(=O)Nc1c(C)cccc1C	inactive
CC(C)=Nc1ccccc1C1COC(=O)C1=N (centres undefined)	inactive
Clc1cccc(Cc2c(-c3cccc(Cl)c3)nc3ccc(Cl)cn23)c1	inconclusive [cytotoxic, single point]
Cc1cc([N+](=O)[O-])nn1CC(=O)N/N=C/c1ccc(O)cc1O	inconclusive [cytotoxic, partial curve]
Cc1ccccc1CSc1nnc(-c2cnccn2)n1C	inactive
Cn1c(=O)[nH]c(=O)c2[nH]c(N(Cc3ccccc3)Cc3ccccc3)nc21	inconclusive [cytotoxic, single point]
Oc1ccc(C[C@H]2CN([C@@H](Cc3ccccc3)CN3CCC[C@@H]3CN3C(=S)NC[C@@H]3Cc3ccccc3)C(=S)N2CC2CCCCC2)cc1	inconclusive [cytotoxic, single point]
Cc1nc(-c2ccc(C(F)(F)F)cc2)sc1C(=O)NN	inconclusive [cytotoxic, partial curve]
CCOC(=O)c1c(C)sc2c1N(C(=O)CCl)c1cc(Cl)ccc1S2	active: 18.4 µM
c1cc2c3c(cccc3c1)NC1(CCC3(CC1)Nc1cccc4cccc(c14)N3)N2	inconclusive [cytotoxic, single point]
CCN(CC)c1ccc(-c2nn3c(-c4ccccc4OC)nnc3s2)cc1	inconclusive [cytotoxic, partial curve, poor fit]
